The other results are listed elsewhere or left out.

This experiment concerns PfAP2-HC AP2 domain (GST-tagged). Description: gcPBM binding intensity (ln(normalized median fluorescence intensity)); higher = stronger DNA binding. In short, it runs like this: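 In this array assay, P. falciparum DNA-binding domains with a GST tag, expressed in E. coli, were applied for 1 h to primer-extended double-stranded 36-bp intergenic genomic probes and negative controls on an Agilent 4 × 180k array. Bound protein was visualised with Alexa488 anti-GST antibody at 488 nm. Binding intensity is the highest Masliner-normalised natural-log median intensity across replicate spots of either probe orientation.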
Consider “TATTTTTAAATATAAAGTACTTATATTAACTACGAA [XGTACX_site1524]”, for which the “gcPBM binding intensity (ln)” value is 9.31. Then “ATTTTTTCTGTCTTAATTGGACCCACTGCAAATGGG [CACACA_negctrl_site1158]”, with 9.14.

On to “ATAATACAAAAAAAAAAAAAAAATAAAATAATAAAA [GTGCAC_negctrl_site722]”, for which the “gcPBM binding intensity (ln)” value was determined as 9.53.

Take “ATATATATGCATATATGTACTTAAAATATAAAGGCA [XGTACX_site3256]”: the “gcPBM binding intensity (ln)” value came out at 9.63. On to “TTCATATATTTTAAAGCATGCATTCATCTTATAGTT [TGCATGCA_site800]”, for which the “gcPBM binding intensity (ln)” value stood at 9.71. Consider “TTTACGCTATAGGAGAGTACTTATAAAATCCTGTGT [XGTACX_site2364]”, for which the “gcPBM binding intensity (ln)” value came out at 9.62. To “TACAAAATATATATGACACACACAAAAAAAGTATAT [CACACA_site8455]” belongs 10.4; to “TATTTTTCCATTGGGGGTACATGTGTTATATTTATT [XGTACX_site5914]”, 9.94.

As for “AGACGAAAATAATAAAGTACTAAAAAAAAAAAAAAA [XGTACX_site927]”, the “gcPBM binding intensity (ln)” value is 9.23. Then “TTTCCCAAGCTTATTACACACAAGTAGAATAAGCTT [CACACA_site1561]”, with 9.61; and “TATATAGGTAAAAAATGTACTTATATTGAATATATT [XGTACX_site4414]”, with 9.61.

As to “TTTACAATATTAAAATGTACATATAAAATAAATAAA [XGTACX_site8367]”, the “gcPBM binding intensity (ln)” value was 9.62. To “GATATCAAATATAAATGTACAAATTATATATACATA [XGTACX_site3228]” belongs 9.63. To “TTCTTATTTATTTTCTTCTCCTTCCTCAAATTTTTT [GTGCAC_negctrl_site592]” belongs 9.59; to “AATTTGTTAATATTTTGTACACATAATATAAAAACA [XGTACX_site2224]”, 9.55. To “GAGAAAGATATATACACACACATAAATATGTACATA [CACACA_site6975]” belongs 10.5. For “ATACAATAAAATAAGTTTGAATAAAATTAAATATAT [CACACA_negctrl_site877]”, the “gcPBM binding intensity (ln)” value was 9.66. Then “TCCTTTTTTAAAAGTTGTACATTATTGTTATTTGTT [XGTACX_site4686]”, with 9.73.

Consider “TTCCTCTTAATATGTGCACACTAAATTATAACCTAA [CACACA_site5751]”, for which the “gcPBM binding intensity (ln)” value was 9.84. To “GAAGGAAATAATAGTAGTACAAATGGTAAGAAATAT [XGTACX_site5845]” belongs 10.2. To “TTTACAATATAAAATACACACACACTAACATATATT [CACACA_site9231]” belongs 10.3; to “TATATAAATGTTATCACACACTCACGTTTGACAAAA [CACACA_site6468]”, 9.71. To ATTATATTTATGTTGGTGCATTATACATGAAATTTA belongs 9.56. With “AATATAATACAATATTGTACATAATATAAATTAAAA [XGTACX_site4064]”, the “gcPBM binding intensity (ln)” value was found to be 9.93. Then “TTCATTTTAATTTCCAGTACACATATATATACATAT [XGTACX_site558]”, with 9.85.

On to “ATGTCATAAATGTACGCACACATACATAAACATATA [CACACA_site4530]”, for which the “gcPBM binding intensity (ln)” value is 10.1. To “ATTTATTTCTATAATACACACAAATATCTTAATTAA [CACACA_site7801]” belongs 9.58; to “GGTAATTATTTTGGTTGTACTCAAATATATAATATT [XGTACX_site291]”, 9.63. To “TATATGTTATATTGGACACACACAATAAACATTATG [CACACA_site8480]” belongs 10; to “AAACATAAAGAAAAAAAAAATATATATTTATTTATT [GTGCAC_negctrl_site357]”, 9.54. Take ATATATTAACAAAAGGTGCTTTTGGCAAAGTATAAT: the “gcPBM binding intensity (ln)” value is 9.85. Regarding “TTATTTAAATATTGATGTACTCTCCTTATTATAATA [XGTACX_site1240]”, the “gcPBM binding intensity (ln)” value turned out to be 9.61. To “ATAAAAATGGTGTTAACACACACATATATATATATA [CACACA_site8089]” belongs 9.83; to “AAAAATTCTTCCCAAGCATGCGCGCGTAAAATATTT [TGCATGCA_site77]”, 9.56; to “AAATTTTTTATTAGTAGTACGCATAAATATATGTAT [XGTACX_site1934]”, 9.53. In the case of “AAAAAAAAAAGAAAAGGTACACAGAATATATATATA [XGTACX_site6914]”, the “gcPBM binding intensity (ln)” value was determined as 9.77. As to “AAAAAAATAAGACACACACACAAAAAAATAAAAATA [CACACA_site6357]”, the “gcPBM binding intensity (ln)” value was 10.6. With “ATTATGAATTTTAATTGTACATTATTATAGAATGTA [XGTACX_site619]”, the “gcPBM binding intensity (ln)” value turned out to be 9.41. Then “AGTTATTTTTATATTTCACACACATATACTTTTACA [CACACA_site9357]”, with 10.1. As to “AATAATTCTTAAAGGTGTACAATATGTATATAAGAA [XGTACX_site595]”, the “gcPBM binding intensity (ln)” value was found to be 9.99. Then “CATGAATATTTATACATGCACACTAAAATAAAGAAT [CACACA_site2412]”, with 9.84; and “GAGGGTATAATAAAAGCACACACAAAGATATAAATA [CACACA_site9087]”, with 10.2; and “TATATATATATATACACACACACACCCCAAAGCGTA [CACACA_site64]”, with 11.1. Then “ACATTTTGTAAAGAATGTACATATATATATATATTC [XGTACX_site8004]”, with 9.56.

These data come from the supplement of paper PMC11417369.
